One experiment deals with HSkMC. Description: cytotoxicity call (relative viability < 0.9). Conditions: 10 µM.
The next experiment relates to HepG2. Description: cytotoxicity call (relative viability < 0.9). Conditions: 10 µM.
The next experiment relates to S. aureus RN4220. Description: growth inhibition call (relative growth <= 0.2). Conditions: 50 µM.

Some of the results follow.

For the compound `Cc1noc(C)c1NC(=O)Nc1ccc2c(c1)CC(=O)N([C@@H](C)CO)C[C@@H](C)[C@@H](CN(C)S(C)(=O)=O)O2`, the cytotoxicity call in the experiment with HSkMC and in the experiment on HepG2 was “inactive” in each case. Also, the growth inhibition call in the experiment on S. aureus RN4220 was “inactive”.

For `C[C@H]1CN([C@@H](C)CO)C(=O)c2cccc(NC(=O)c3cnccn3)c2O[C@H]1CN(C)C(=O)Nc1ccccc1`, the cytotoxicity call in the experiment with HSkMC and in the experiment with HepG2 was “inactive” throughout. Besides, the growth inhibition call in the experiment with S. aureus RN4220 is “inactive”.

As to `C[C@H]1CCCCO[C@H](CN(C)S(C)(=O)=O)[C@@H](C)CN([C@@H](C)CO)C(=O)c2cc(N(C)C)ccc2O1`, the cytotoxicity call with HSkMC and in the experiment on HepG2 was “inactive” throughout. In the experiment on S. aureus RN4220, the growth inhibition call was “inactive”.

Consider `C[C@@H]1CCCCO[C@@H](CN(C)S(=O)(=O)c2ccc(F)cc2)[C@H](C)CN([C@@H](C)CO)C(=O)c2cc(NS(C)(=O)=O)ccc2O1`, for which the cytotoxicity call in the experiment with HSkMC and with HepG2 was “inactive” throughout. The growth inhibition call in the experiment with S. aureus RN4220 is “inactive”.

`C[C@H]1CN([C@@H](C)CO)C(=O)Cc2cc(NC(=O)c3ccncc3)ccc2O[C@H]1CN(C)S(=O)(=O)c1cccs1`: the cytotoxicity call with HSkMC and with HepG2 was “inactive” each time. In addition, in the experiment on S. aureus RN4220, the growth inhibition call was “inactive”.

Consider `COc1ccc(S(=O)(=O)Nc2ccc3c(c2)CC(=O)N([C@H](C)CO)C[C@@H](C)[C@@H](CN(C)S(=O)(=O)c2cccs2)O3)cc1`, for which the cytotoxicity call with HSkMC and with HepG2 was “inactive” in each case. In addition, in the experiment on S. aureus RN4220, the growth inhibition call is “inactive”.

`C[C@H](CO)N1C[C@H](C)[C@@H](CN(C)S(C)(=O)=O)Oc2ccc(NS(=O)(=O)c3ccc(F)cc3)cc2C1=O`: the cytotoxicity call in the experiment on HSkMC and in the experiment with HepG2 was “inactive” throughout. In addition, in the experiment with S. aureus RN4220, the growth inhibition call is “inactive”.

`CC(=O)Nn1cc(C(=O)O)c2ccccc2c1=O`: the cytotoxicity call in the experiment on HSkMC and in the experiment on HepG2 was “inactive” each time. Moreover, the growth inhibition call in the experiment on S. aureus RN4220 is “inactive”.

In the case of `O=C(NC1(c2ccccc2)CC1)c1c(CN2CCC(N3CCCCC3)CC2)c(-c2cccc(C(F)(F)F)c2)nc2cc(Br)ccc12`, the cytotoxicity call in the experiment with HSkMC and with HepG2 was “active” in each case. The growth inhibition call in the experiment on S. aureus RN4220 was “inactive”.

On to `C[C@H]1CN([C@@H](C)CO)C(=O)c2cccc(NS(=O)(=O)c3cccs3)c2O[C@H]1CN(C)S(C)(=O)=O`, for which the cytotoxicity call in the experiment on HSkMC and in the experiment with HepG2 was “inactive” throughout. Besides, the growth inhibition call in the experiment on S. aureus RN4220 is “inactive”.

Consider `C[C@@H]1CCCCO[C@H](CN(C)Cc2ccc(C(=O)O)cc2)[C@H](C)CN([C@H](C)CO)C(=O)c2cc(NS(=O)(=O)c3ccc(F)cc3)ccc2O1`, for which the cytotoxicity call with HSkMC and in the experiment on HepG2 was “inactive” in each case. In the experiment with S. aureus RN4220, the growth inhibition call is “inactive”.

Regarding `C[C@H]1CCCC[C@]12NC(=O)NC2=O`, the cytotoxicity call in the experiment with HSkMC and in the experiment with HepG2 was “inactive” in each case. Moreover, the growth inhibition call with S. aureus RN4220 is “inactive”.

For the compound `O=C(C[C@@H]1CC=CCC[C@H](Cc2ccc(F)cc2)C(=O)OC[C@H](Cc2c[nH]c3ccccc23)NC1=O)N[C@H](CO)Cc1ccccc1`, the cytotoxicity call in the experiment on HSkMC is “inactive”. Further, the cytotoxicity call in the experiment with HepG2 was “active”. For the same compound, in the experiment with S. aureus RN4220, the growth inhibition call was “inactive”.

`Cc1ccc(S(=O)(=O)Nc2ccc3c(c2)CC(=O)N([C@@H](C)CO)C[C@@H](C)[C@H](CN(C)S(=O)(=O)c2cn(C)cn2)O3)cc1`: the cytotoxicity call in the experiment on HSkMC and with HepG2 was “inactive” throughout. Moreover, in the experiment with S. aureus RN4220, the growth inhibition call is “inactive”.

As to `COCCNC(=O)C[C@@H]1CC[C@H]2[C@@H](COc3ccc(NS(=O)(=O)c4ccc(Cl)cc4)cc3C(=O)N2C)O1`, the cytotoxicity call with HSkMC and in the experiment with HepG2 was “inactive” each time. The growth inhibition call in the experiment with S. aureus RN4220 is “inactive”.

`CC(C)CN1C(=O)[C@@]2(c3ccc([N+](=O)[O-])cc3)CC(=O)N(CC34CC5CC(CC(C5)C3)C4)[C@@H]2c2ccc(CO)cc21`: the cytotoxicity call in the experiment with HSkMC and with HepG2 was “inactive” throughout. In the experiment with S. aureus RN4220, the growth inhibition call was “inactive”.

For `C[C@H](CO)N1C[C@H](C)[C@@H](CN(C)Cc2ccc(C(F)(F)F)cc2)Oc2ccc(NC(=O)Nc3ccc(C(F)(F)F)cc3)cc2C1=O`, the cytotoxicity call in the experiment with HSkMC and in the experiment on HepG2 was “inactive” throughout. In addition, the growth inhibition call in the experiment on S. aureus RN4220 is “inactive”.

With `C[C@@H]1CCCCO[C@@H](CN(C)C(=O)NC2CCCCC2)[C@H](C)CN([C@H](C)CO)C(=O)c2cc(NC(=O)c3ccccc3)ccc2O1`, the cytotoxicity call in the experiment with HSkMC and with HepG2 was “inactive” in each case. For the same compound, the growth inhibition call in the experiment with S. aureus RN4220 was “inactive”.

As to `C[C@H](CO)N1C[C@H](C)[C@@H](CN(C)C(=O)c2ccncc2)Oc2ncc(C#CC3CCCCC3)cc2C1=O`, the cytotoxicity call in the experiment on HSkMC and in the experiment with HepG2 was “inactive” each time. Also, in the experiment on S. aureus RN4220, the growth inhibition call was “inactive”.

Take `Nc1ccc(O)cc1`: the cytotoxicity call in the experiment on HSkMC is “inactive”. The cytotoxicity call with HepG2 is “active”. Also, in the experiment on S. aureus RN4220, the growth inhibition call was “inactive”.

With `C[C@H]1CN([C@@H](C)CO)C(=O)c2cccc(NC(=O)c3ccc(-c4nccs4)cc3)c2O[C@@H]1CN(C)Cc1ccc(C(=O)O)cc1`, the cytotoxicity call in the experiment with HSkMC and with HepG2 was “inactive” in each case. Moreover, the growth inhibition call in the experiment on S. aureus RN4220 was “inactive”.

In the case of `c1ccc(Nc2nc(-c3ccccc3)nc3ccccc23)cc1`, the cytotoxicity call in the experiment on HSkMC and with HepG2 was “inactive” throughout. In addition, the growth inhibition call with S. aureus RN4220 is “inactive”.

`CC(C)NC(=O)N(C)C[C@@H]1OCCCC[C@@H](C)Oc2ccc(NC(=O)Nc3ccccc3)cc2C(=O)N([C@@H](C)CO)C[C@@H]1C`: the cytotoxicity call in the experiment with HSkMC and with HepG2 was “inactive” each time. The growth inhibition call in the experiment with S. aureus RN4220 is “inactive”.

For the compound `COCC(=O)Nc1ccc2c(c1)OC[C@H](C)N(C(=O)Cc1ccccn1)C[C@@H](C)[C@@H](OC)CN(C)C2=O`, the cytotoxicity call with HSkMC and in the experiment with HepG2 was “inactive” throughout. In addition, the growth inhibition call in the experiment on S. aureus RN4220 is “inactive”.

As for `CO[C@H]1CCCNC1`, the cytotoxicity call with HSkMC and with HepG2 was “inactive” in each case. In the experiment on S. aureus RN4220, the growth inhibition call is “inactive”.

For the compound `CN(C)S(=O)(=O)N1CCO[C@@H]2CN(c3ncc(F)cn3)C[C@@H]21`, the cytotoxicity call in the experiment on HSkMC and with HepG2 was “inactive” each time. In addition, the growth inhibition call with S. aureus RN4220 is “inactive”.

For `C[C@H]1CN([C@@H](C)CO)C(=O)CCCn2nncc2CO[C@@H]1CN(C)S(=O)(=O)c1ccc(-c2ccccc2)cc1`, the cytotoxicity call in the experiment on HSkMC (human skeletal muscle cells) and with HepG2 was “inactive” throughout. Moreover, the growth inhibition call in the experiment with S. aureus RN4220 is “inactive”.

Regarding `C[C@H](CO)N1C[C@H](C)[C@@H](CN(C)CC2CCCCC2)OCCCC[C@H](C)Oc2ccc(NC(=O)C3CCCCC3)cc2C1=O`, the cytotoxicity call in the experiment with HSkMC and in the experiment on HepG2 was “inactive” each time. For the same compound, in the experiment with S. aureus RN4220, the growth inhibition call was “inactive”.

For the compound `CC(C)CC(=O)C(=O)O`, the cytotoxicity call with HSkMC and in the experiment on HepG2 was “inactive” each time. The growth inhibition call with S. aureus RN4220 was “inactive”.

With `C[C@@H]1CN([C@@H](C)CO)C(=O)c2cc(Br)cnc2O[C@H]1CN(C)S(=O)(=O)c1cccs1`, the cytotoxicity call with HSkMC and with HepG2 was “inactive” in each case. Moreover, in the experiment with S. aureus RN4220, the growth inhibition call was “inactive”.

(Values after the antibiotic and cytotoxicity screens of Wong et al. (2023).)
